The record followed here is article PMC4336329 (PLoS ONE, 2015).

The structures appear in SMILES notation. Screen size: about 310,000 compounds; about 14,000 (4.5%) showed an effect of 50% or more. Effects have a minus sign here. This is one part of the list.
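Note: peak tail current of the secondary pulse compared with the same well before compound.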

human ether-à-go-go-related gene (hERG) potassium channel, sequence (Q12809 whole entry, looked up): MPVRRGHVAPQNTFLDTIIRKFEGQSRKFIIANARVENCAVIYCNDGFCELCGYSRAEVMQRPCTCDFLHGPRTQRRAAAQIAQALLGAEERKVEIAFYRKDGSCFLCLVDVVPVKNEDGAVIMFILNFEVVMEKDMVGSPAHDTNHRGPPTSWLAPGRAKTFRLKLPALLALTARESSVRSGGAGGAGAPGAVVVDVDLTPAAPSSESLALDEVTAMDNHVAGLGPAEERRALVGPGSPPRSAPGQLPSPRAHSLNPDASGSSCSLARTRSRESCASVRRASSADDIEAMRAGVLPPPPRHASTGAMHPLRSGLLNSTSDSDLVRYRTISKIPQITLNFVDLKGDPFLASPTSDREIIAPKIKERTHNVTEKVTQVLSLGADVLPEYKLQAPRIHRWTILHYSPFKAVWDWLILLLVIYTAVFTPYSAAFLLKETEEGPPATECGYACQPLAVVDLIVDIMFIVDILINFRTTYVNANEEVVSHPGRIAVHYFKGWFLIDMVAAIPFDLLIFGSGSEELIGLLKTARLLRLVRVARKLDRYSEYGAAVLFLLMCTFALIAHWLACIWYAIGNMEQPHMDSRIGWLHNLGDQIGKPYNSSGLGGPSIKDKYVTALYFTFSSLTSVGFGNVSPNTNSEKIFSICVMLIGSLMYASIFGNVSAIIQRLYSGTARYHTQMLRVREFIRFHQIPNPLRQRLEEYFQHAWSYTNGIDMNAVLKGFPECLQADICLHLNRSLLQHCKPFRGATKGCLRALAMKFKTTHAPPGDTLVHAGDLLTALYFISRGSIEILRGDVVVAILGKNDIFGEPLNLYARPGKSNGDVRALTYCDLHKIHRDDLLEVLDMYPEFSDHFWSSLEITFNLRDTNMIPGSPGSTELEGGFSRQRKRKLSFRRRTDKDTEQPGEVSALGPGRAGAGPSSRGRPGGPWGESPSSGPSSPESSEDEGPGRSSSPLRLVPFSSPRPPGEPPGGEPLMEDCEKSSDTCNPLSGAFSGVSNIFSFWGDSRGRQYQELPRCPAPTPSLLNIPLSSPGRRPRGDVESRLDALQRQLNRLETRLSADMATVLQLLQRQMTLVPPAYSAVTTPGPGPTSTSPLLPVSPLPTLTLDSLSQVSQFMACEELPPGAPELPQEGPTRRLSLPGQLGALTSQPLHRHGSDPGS

This experiment has as its target human ether-à-go-go-related gene (hERG) potassium channel (human, UniProt Q12809). Kind of experiment: primary screen, population patch clamp on CHO cells stably expressing hERG.
For the compound `COc1ccc2sc(-c3ccccc3OC)c(-c3ccc(OC)nc3)c2c1`, the “hERG current change (%, negative = inhibition) at 10uM” value came to 6.64%.

As for `O=C(Cc1sc(-c2ccccc2Cl)nc1-c1ccccc1)Nc1ccccc1`, the “hERG current change (%, negative = inhibition) at 10uM” value came out at 11.3%. The figure for `Cc1ccc(-c2cc3nc(-c4ccccc4)cc(N4CCC5(CC4)OCCO5)n3n2)cc1` is 6.72%; for `O=C(O)CSCC(=O)NCc1ccccc1Cl` it is 22.6%. To `COc1ccccc1/C=C/CN1CCN(Cc2ccc(F)cc2)C(CCO)C1` (stereo not shown) belongs -51%; to `O=C(c1cccc(S(=O)(=O)NCc2ccccc2)c1)N1CCN(c2cccc(C(F)(F)F)c2)CC1`, -4.17%. Turning to `Cc1ccc(C(=O)c2ccccc2C(=O)OCC(=O)NC(=O)NC(C)(C)C)cc1`, the “hERG current change (%, negative = inhibition) at 10uM” value is on record as 18.8%. As to `O=C(Nc1nc2ccc(F)cc2s1)C1=NN(c2ccccc2)C(=O)CC1`, the “hERG current change (%, negative = inhibition) at 10uM” value is listed as -5.92%. Regarding `CC(C)N1CCN(Cc2ccc3c(c2)OCCO3)CC1CCO` (stereo not shown), the “hERG current change (%, negative = inhibition) at 10uM” value worked out at 3.63%. The figure for `Clc1ccc(Oc2cnns2)c(Cl)c1` is -9.72%; for `CC(=NCCN1CCOCC1)c1c(O)n(-c2ccccc2C)c(=O)[nH]c1=O` it is -1.88%.

Consider `CCn1cnc2cc(NCc3ccncc3)ccc21`, for which the “hERG current change (%, negative = inhibition) at 10uM” value worked out at 6.89%. For `COc1ccc2c(c1)cc(C(=O)N/N=C/c1c(O)c(C(=O)O)cc3ccccc13)n2C`, the “hERG current change (%, negative = inhibition) at 10uM” value is recorded as 19.8%.

On to `N#C/C(=C(/O)CCl)c1nc2c(s1)CCc1ccccc1-2`, for which the “hERG current change (%, negative = inhibition) at 10uM” value turned out to be 10.3%. Turning to `COc1ccc(CN2CCNC(=O)C2CC(=O)NCCc2nc(C)c(C)s2)c(OC)c1` (stereo not shown), the “hERG current change (%, negative = inhibition) at 10uM” value is listed as -13.5%. With `Cl.NC(Cc1ccccc1)C(=O)N1CCCCC1` (stereo not shown), the “hERG current change (%, negative = inhibition) at 10uM” value was 18.8%. In the case of `CCOc1ccccc1N1CC(C(=O)N(CC)CC(=O)Nc2ccc3c(c2)OCCO3)CC1=O` (stereo not shown), the “hERG current change (%, negative = inhibition) at 10uM” value is given as -6.39%. To `Nc1ccc2c(c1)C(=O)c1ccccc1-2` belongs 10.6%; to `COc1ccc(C2CC(c3cccs3)=NN2S(C)(=O)=O)cc1OC` (stereo not shown), 1.63%. On to `Cc1cccc2nc(CSc3nc4cc([N+](=O)[O-])ccc4s3)cn12`, for which the “hERG current change (%, negative = inhibition) at 10uM” value is -21.7%. In the case of `Cc1ccc(OCc2n[nH]c(=S)n2-c2ccc(Cl)cc2)cc1`, the “hERG current change (%, negative = inhibition) at 10uM” value worked out at 18.2%. As for `COCCCn1c(=O)c2ccccc2n(Cc2cccc(C)c2)c1=O`, the “hERG current change (%, negative = inhibition) at 10uM” value is -7.42%. Consider `CC1(C)Cc2ccccc2C(c2cc3ccccc3oc2=O)=N1`, for which the “hERG current change (%, negative = inhibition) at 10uM” value is reported as -10.2%. In the case of `CCCCCC(=O)Nc1ccc(N2CCN(C(=O)c3ccccc3)CC2)cc1`, the “hERG current change (%, negative = inhibition) at 10uM” value is given as -62.8%. In the case of `CCOC(=O)c1cnc2nc(Cc3ccccc3)[nH]n2c1=O`, the “hERG current change (%, negative = inhibition) at 10uM” value is listed as 9.17%. With `CCOc1ccccc1N(CC(=O)N1CCCC1)S(C)(=O)=O`, the “hERG current change (%, negative = inhibition) at 10uM” value worked out at 17.4%. In the case of `CCOc1ccc(S(=O)(=O)Nc2cccc(-c3ccc(N4CCCCCC4)nn3)c2)cc1`, the “hERG current change (%, negative = inhibition) at 10uM” value worked out at 18.7%. With `CC(=O)Oc1ccc(N(c2ccccc2)S(=O)(=O)c2ccc(C)cc2)cc1`, the “hERG current change (%, negative = inhibition) at 10uM” value is reported as 14.2%. For the compound `O=c1[nH]ncn1-c1ccccc1C(F)(F)F`, the “hERG current change (%, negative = inhibition) at 10uM” value was 11.4%. In the case of `Cc1ccc2cc(CN(CCCO)S(=O)(=O)c3cccc4nsnc34)c(=O)[nH]c2c1`, the “hERG current change (%, negative = inhibition) at 10uM” value is on record as -18.5%.

Consider `O=C(N/C(=C\c1ccc(Br)cc1)c1nc2ccccc2[nH]1)c1ccco1`, for which the “hERG current change (%, negative = inhibition) at 10uM” value was 6.55%. Regarding `Cc1cc(S(=O)(=O)NC2CC(C)(C)NC(C)(C)C2)c(Cl)cc1Cl`, the “hERG current change (%, negative = inhibition) at 10uM” value is reported as -9.78%.

In the case of `Cc1ccc(C)c(C(=O)Nc2c(C(N)=O)oc3ccccc23)c1`, the “hERG current change (%, negative = inhibition) at 10uM” value worked out at 5.52%. In the case of `Nn1c(SC/C=C/c2ccccc2)nnc1-c1ccco1`, the “hERG current change (%, negative = inhibition) at 10uM” value was -3.58%.

In the case of `COCc1nc(-c2ccc(-c3ccc(C)cc3)nc2OC)no1`, the “hERG current change (%, negative = inhibition) at 10uM” value was -2.11%. As for `COCCCNC(=O)Cn1nc(-c2ccc(C)cc2)ccc1=O`, the “hERG current change (%, negative = inhibition) at 10uM” value stood at 5.06%.

Take `C=CCn1c(SCCOc2ccc(OC)cc2)nnc1C(CO)NC(=O)c1ccc(OC)cc1` (stereo not shown): the “hERG current change (%, negative = inhibition) at 10uM” value is on record as -1.86%. To `CCc1ccc(NC(=O)N[C@H](C(=O)O)C(C)CC)cc1` (stereo partly shown) belongs 10.5%; to `CCCCN(C)C(=O)c1cc2cc3cc(OC)ccc3nc2o1`, -30.8%; to `COc1ccccc1NC(=O)CC(=O)CSc1nnc(-c2ccc(C)cc2)n1-c1ccccc1`, -9.58%. `COc1ccc(S(=O)(=O)N2CCC(C(=O)N[C@@H](C)C(=O)NC3CCCC3)CC2)cc1`: the “hERG current change (%, negative = inhibition) at 10uM” value is 13.4%.

For the compound `FC(F)(F)c1nc(SCc2ccc(Cl)cc2Cl)n[nH]1`, the “hERG current change (%, negative = inhibition) at 10uM” value is -0.342%. For `Cc1ccc(NC2CCCN(C(=O)c3cc(C(C)C)[nH]n3)C2)cc1C` (stereo not shown), the “hERG current change (%, negative = inhibition) at 10uM” value worked out at 7.88%.

As to `COc1ccc(NCc2nn(CC(=O)c3ccc(Br)cc3)c3[n+]2CCCCC3)cc1.[Br-]`, the “hERG current change (%, negative = inhibition) at 10uM” value is recorded as 10.1%.

As to `O=C(COC(=O)c1cnccn1)NCCc1ccccc1`, the “hERG current change (%, negative = inhibition) at 10uM” value worked out at 17.7%. Regarding `CC(=O)c1cc2c(cc1NC(=O)CCn1cccc1)OCO2`, the “hERG current change (%, negative = inhibition) at 10uM” value amounted to 2.39%. Regarding `CCN(C(=O)c1ccc(NC(C)=O)cc1)c1ccccc1C`, the “hERG current change (%, negative = inhibition) at 10uM” value stood at 10.9%. Consider `O=C(Cn1nc2ccccc2n1)N/N=C/c1cc([N+](=O)[O-])ccc1O`, for which the “hERG current change (%, negative = inhibition) at 10uM” value is -38.3%. Consider `CCCc1nnc(NC(=O)CCC(=O)N2CCN(S(=O)(=O)c3ccc(F)cc3)CC2)s1`, for which the “hERG current change (%, negative = inhibition) at 10uM” value is listed as 2.65%. The figure for `Cc1onc(-c2c(Cl)cccc2Cl)c1C(=O)Nc1ccc2c(C(F)(F)F)cc(=O)oc2c1` is -16%; for `O=C(c1scc2c1CCCC2)N1CCCCC1` it is 15.6%.

Turning to `CCCc1cc(=O)[nH]c(SCC(=O)c2cc(C)n(-c3c(C)n(C)n(-c4ccccc4)c3=O)c2C)n1`, the “hERG current change (%, negative = inhibition) at 10uM” value is given as 38.6%. With `CN1/C(=C\C(=O)COC(=O)Cn2nnc(-c3ccccc3)n2)C(C)(C)c2ccccc21`, the “hERG current change (%, negative = inhibition) at 10uM” value is reported as 5.89%. Consider `COc1cccc(NC(=O)[C@H](CC(C)C)NC(=O)N2CCn3c2nc2ccccc23)c1`, for which the “hERG current change (%, negative = inhibition) at 10uM” value worked out at 7.14%. As for `CSCC[C@H](NC(=O)OC(C)(C)C)c1nnc(SCC(=O)Nc2c(C)cccc2C)o1`, the “hERG current change (%, negative = inhibition) at 10uM” value is recorded as -14.5%.
